# This is one part of the list.
# B1: LTL (Lotus tetragonolobus), P19664 (protein)
# chain: VSFNYTEFKDDGSLILQGDAKIWTDGRLAMPTDPLVNNPKTTRSAGRALYATPVPIWDSATGNVASFVTSFNFLFVIRELKYTPTDGLVFFLAPVGTEIPSGSTGGFLGIFDGSNGFNQFVAVEFDSYHNIWDPKSLRSSHVGIDVNSIMSLKAVNWNRVSGSLEKATIIYDSQTNILSVVMTSQNGQITTIYGTIDLKTVLPEKVSVGFSATTGNPEREKHDIYSWSFTSTLKEPEEQA
# Columns and labels:
# Experiment in all cases: glycan array binding signal (z-score within array); higher = stronger binding
# Conditions in all cases: glycan notation: IUPAC condensed, linker removed
# [1] = molecular target: Fuc(a1-2)Gal(b1-4)GlcNAc(b1-3)Gal(b1-4)GlcNAc
# How it was run: (§1)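 The Consortium for Functional Glycomics database supplied 3228 glycan arrays, of which those lacking an available protein sequence were dropped. The binding signal, a within-array Z-score, was averaged across arrays of the same protein sequence and across linkers. Negative scores can be read as non-binding.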
# [2] = molecular target: Fuc(a1-2)Gal(b1-4)GlcNAc(b1-3)Gal(b1-4)GlcNAc(b1-2)Man(a1-3)[Fuc(a1-2)Gal(b1-4)GlcNAc(b1-3)Gal(b1-4)GlcNAc(b1-2)Man(a1-6)]Man(b1-4)GlcNAc(b1-4)GlcNAc
# How it was run: as §1
# [3] = molecular target: Fuc(a1-2)Gal(b1-4)GlcNAc(b1-3)Gal(b1-4)GlcNAc(b1-3)Gal(b1-4)GlcNAc
# How it was run: as §1
# [4] = molecular target: Fuc(a1-2)Gal(b1-4)GlcNAc(b1-3)GalNAc
# How it was run: as §1
# [5] = molecular target: Fuc(a1-2)Gal(b1-4)GlcNAc(b1-3)[Fuc(a1-2)Gal(b1-4)GlcNAc(b1-6)]GalNAc
# How it was run: as §1
# [6] = molecular target: Fuc(a1-2)Gal(b1-4)GlcNAc(b1-3)[Fuc(a1-3)[Gal(b1-4)]GlcNAc(b1-6)]Gal(b1-4)Glc
# How it was run: as §1
# [7] = molecular target: Fuc(a1-2)Gal(b1-4)GlcNAc(b1-6)GalNAc
# How it was run: as §1
# [8] = molecular target: Fuc(a1-2)Gal(b1-4)GlcNAc6S
# How it was run: as §1
# [9] = molecular target: Fuc(a1-2)Gal(b1-4)[Fuc(a1-3)]GalNAc(b1-3)Gal(b1-4)[Fuc(a1-3)]GlcNAc
# How it was run: as §1
# [10] = molecular target: Fuc(a1-2)Gal(b1-4)[Fuc(a1-3)]GalNAc(b1-3)Gal(b1-4)[Fuc(a1-3)]GlcNAc(b1-3)Gal(b1-4)[Fuc(a1-3)]GalNAc
# How it was run: as §1
# [11] = molecular target: Fuc(a1-2)Gal(b1-4)[Fuc(a1-3)]GlcNAc
# How it was run: as §1
# [12] = molecular target: Fuc(a1-2)Gal(b1-4)[Fuc(a1-3)]GlcNAc(b1-2)Man(a1-3)[Fuc(a1-2)Gal(b1-4)[Fuc(a1-3)]GlcNAc(b1-2)Man(a1-6)]Man(b1-4)GlcNAc(b1-4)[Fuc(a1-6)]GlcNAc
# How it was run: as §1
# [13] = molecular target: Fuc(a1-2)Gal(b1-4)[Fuc(a1-3)]GlcNAc(b1-2)[Fuc(a1-2)Gal(b1-4)[Fuc(a1-3)]GlcNAc(b1-4)]Man(a1-3)[Fuc(a1-2)Gal(b1-4)[Fuc(a1-3)]GlcNAc(b1-2)Man(a1-6)]Man(b1-4)GlcNAc(b1-4)GlcNAc
# How it was run: as §1
# [14] = molecular target: Fuc(a1-2)Gal(b1-4)[Fuc(a1-3)]GlcNAc(b1-3)Gal(b1-4)[Fuc(a1-3)]GlcNAc
# How it was run: as §1
# [15] = molecular target: Fuc(a1-2)Gal(b1-4)[Fuc(a1-3)]GlcNAc(b1-3)Gal(b1-4)[Fuc(a1-3)]GlcNAc(b1-3)Gal(b1-4)[Fuc(a1-3)]GlcNAc
# How it was run: as §1
# [16] = molecular target: Fuc(a1-2)Gal(b1-4)[Fuc(a1-3)]GlcNAc(b1-3)GalNAc
# How it was run: as §1
# [17] = molecular target: Fuc(a1-2)Gal(b1-4)[Fuc(a1-3)]GlcNAc(b1-3)[Neu5Ac(a2-6)Gal(b1-4)GlcNAc(b1-6)]Gal(b1-4)Glc
# How it was run: as §1
# [18] = molecular target: Fuc(a1-2)Gal3S(b1-4)GlcNAc
# How it was run: as §1
# [19] = molecular target: Fuc(a1-2)Gal6S(b1-3)GlcNAc
# How it was run: as §1
# [20] = molecular target: Fuc(a1-2)Gal6S(b1-3)GlcNAc6S
# How it was run: as §1
# Fuc(a1-2)Gal6S(b1-4)Glc = molecular target: Fuc(a1-2)Gal6S(b1-4)Glc
# How it was run: as §1
# [21] = molecular target: Fuc(a1-2)Gal6S(b1-4)Glc6S
# How it was run: as §1
# [22] = molecular target: Fuc(a1-2)Gal6S(b1-4)GlcNAc
# How it was run: as §1
# Fuc(a1-2)GlcNAc = molecular target: Fuc(a1-2)GlcNAc
# How it was run: as §1
# Fuc(a1-2)[Gal(a1-3)]Gal = molecular target: Fuc(a1-2)[Gal(a1-3)]Gal
# How it was run: as §1
# [23] = molecular target: Fuc(a1-2)[Gal(a1-3)]Gal(b1-3)GalNAc
# How it was run: as §1
# [24] = molecular target: Fuc(a1-2)[Gal(a1-3)]Gal(b1-3)GalNAc(b1-3)Gal(a1-4)Gal(b1-4)Glc
# How it was run: as §1
# [25] = molecular target: Fuc(a1-2)[Gal(a1-3)]Gal(b1-3)GlcNAc
# How it was run: as §1
# [26] = molecular target: Fuc(a1-2)[Gal(a1-3)]Gal(b1-3)GlcNAc(b1-2)Man(a1-3)[Fuc(a1-2)[Gal(a1-3)]Gal(b1-3)GlcNAc(b1-2)Man(a1-6)]Man(b1-4)GlcNAc(b1-4)GlcNAc
# How it was run: as §1
# [27] = molecular target: Fuc(a1-2)[Gal(a1-3)]Gal(b1-3)GlcNAc(b1-2)Man(a1-3)[Fuc(a1-2)[Gal(a1-3)]Gal(b1-3)GlcNAc(b1-2)Man(a1-6)]Man(b1-4)GlcNAc(b1-4)[Fuc(a1-6)]GlcNAc
# How it was run: as §1
binder,measurement,setting,value
B1,glycan array binding signal (z-score),[1],-0.29
same,glycan array binding signal (z-score),[2],0.486
same,glycan array binding signal (z-score),[3],-0.156
same,glycan array binding signal (z-score),[4],-0.169
same,glycan array binding signal (z-score),[5],-0.109
same,glycan array binding signal (z-score),[6],0.046
same,glycan array binding signal (z-score),[7],0.22
same,glycan array binding signal (z-score),[8],-0.057
same,glycan array binding signal (z-score),[9],-0.279
same,glycan array binding signal (z-score),[10],-0.524
same,glycan array binding signal (z-score),[11],4.58
same,glycan array binding signal (z-score),[12],0.945
same,glycan array binding signal (z-score),[13],0.272
same,glycan array binding signal (z-score),[14],0.402
same,glycan array binding signal (z-score),[15],0.405
same,glycan array binding signal (z-score),[16],1.45
same,glycan array binding signal (z-score),[17],-0.181
same,glycan array binding signal (z-score),[18],-0.257
same,glycan array binding signal (z-score),[19],-0.38
same,glycan array binding signal (z-score),[20],0.098
same,glycan array binding signal (z-score),Fuc(a1-2)Gal6S(b1-4)Glc,0.096
same,glycan array binding signal (z-score),[21],-0.199
same,glycan array binding signal (z-score),[22],-0.004
same,glycan array binding signal (z-score),Fuc(a1-2)GlcNAc,2.03
same,glycan array binding signal (z-score),Fuc(a1-2)[Gal(a1-3)]Gal,-0.102
same,glycan array binding signal (z-score),[23],0.102
same,glycan array binding signal (z-score),[24],-0.059
same,glycan array binding signal (z-score),[25],-0.052
same,glycan array binding signal (z-score),[26],-0.093
same,glycan array binding signal (z-score),[27],-0.031

# Reference: the supplement of paper PMC8728848
